Consider 9 molecules from publication PMC5316870.

Sequences of proteins named here, by UniProt entry; tags and fusion partners are left off. A change or cut given only in a name is not applied to a line headed by its entry.
UniProt O95863: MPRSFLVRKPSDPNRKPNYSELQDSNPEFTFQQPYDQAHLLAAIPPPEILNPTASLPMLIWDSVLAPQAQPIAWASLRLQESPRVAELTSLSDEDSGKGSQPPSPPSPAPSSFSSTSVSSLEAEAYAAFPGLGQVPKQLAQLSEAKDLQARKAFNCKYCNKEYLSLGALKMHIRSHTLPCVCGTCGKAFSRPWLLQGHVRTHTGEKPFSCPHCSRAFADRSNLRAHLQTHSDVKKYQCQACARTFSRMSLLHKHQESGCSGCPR

Results are given in words; binding and its absence hold for the method and conditions named. In cells and extracts the contact can be indirect. Some results given as binding are weak or reduced against the parent protein; the word gives no strength. For part of these data: Where a sequence is shown, tags or fusion partners need not be part of it.

One assay has as its target T1, GST-Dub3 (UniProt Q6R6M4).
T1 sequence: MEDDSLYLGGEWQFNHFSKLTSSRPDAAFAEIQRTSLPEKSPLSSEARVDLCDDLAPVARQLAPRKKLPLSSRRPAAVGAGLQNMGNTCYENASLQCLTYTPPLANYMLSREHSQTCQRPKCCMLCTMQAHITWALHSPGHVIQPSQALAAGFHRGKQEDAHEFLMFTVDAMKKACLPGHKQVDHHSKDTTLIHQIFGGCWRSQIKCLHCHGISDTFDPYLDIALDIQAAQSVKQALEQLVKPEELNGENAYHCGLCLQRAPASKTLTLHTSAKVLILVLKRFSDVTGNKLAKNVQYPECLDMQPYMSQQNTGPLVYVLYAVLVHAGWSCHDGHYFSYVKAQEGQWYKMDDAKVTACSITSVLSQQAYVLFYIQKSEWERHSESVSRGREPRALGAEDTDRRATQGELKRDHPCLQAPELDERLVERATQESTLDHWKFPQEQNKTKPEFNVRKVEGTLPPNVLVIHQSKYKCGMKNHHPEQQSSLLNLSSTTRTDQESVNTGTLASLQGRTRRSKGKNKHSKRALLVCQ
In words: pull-down; glutathione-Sepharose-bound GST-Snail1 or GST-Dub3 rotated with HEK293 cell lysates in 20 mM Tris, 150 mM NaCl, 1% Nonidet P-40; western blot; only the target purified. (A western blot detects proteins with antibodies after separation by electrophoresis.)

For the next assay, the target named is T2, Flag-Dub3 (UniProt Q6R6M4).
T2 sequence: T1 sequence
In words: co-IP; proteins co-expressed in HEK293 cells by transient transfection; lysis in 50 mM Tris pH 7.5, 150 mM NaCl, 1% Nonidet P-40, 1 mM EDTA, 0.25% deoxycholate; IP overnight at 4 °C with tag antibody on agarose beads; western blot.

For assay [1], the target named is T3, endogenous Dub3 (MDA-MB231 and MDA-MB157 cells) (human (endogenous in MDA-MB231 and MDA-MB157)) (UniProt Q6R6M4).
T3 sequence: T1 sequence
In words: co-IP; endogenous Snail1 and Dub3 captured by IP from MDA-MB231 and MDA-MB157 cells; western blot.

A further assay addresses HA-Snail1 (UniProt O95863). Nature of the assay: co-IP; proteins co-expressed in HEK293 cells by transient transfection; lysis in 50 mM Tris pH 7.5, 150 mM NaCl, 1% Nonidet P-40, 1 mM EDTA, 0.25% deoxycholate; IP overnight at 4 °C with tag antibody on agarose beads; western blot.
Assay [2] concerns the target Flag-tagged N-terminal Snail1 (amino acids 1-153) (UniProt O95863). The description is as above.
The target in assay [3] is Flag-tagged full-length (FL) Snail1 (UniProt O95863). The assay is described as above.
The target in another assay is GST-Snail1 (UniProt O95863). Nature of the assay: pull-down; glutathione-Sepharose-bound GST-Snail1 or GST-Dub3 rotated with HEK293 cell lysates in 20 mM Tris, 150 mM NaCl, 1% Nonidet P-40; western blot; only the target purified.
For assay [4], the target named is Snail1 co-expressed with DUBs in HEK293 cells (Supplementary Fig. 1c) (UniProt O95863). In words: co-IP; proteins co-expressed in HEK293 cells by transient transfection; lysis in 50 mM Tris pH 7.5, 150 mM NaCl, 1% Nonidet P-40, 1 mM EDTA, 0.25% deoxycholate; IP overnight at 4 °C with tag antibody on agarose beads; western blot.
The target of assay [5] is endogenous Snail1 (MDA-MB231 and MDA-MB157 cells) (human (endogenous in MDA-MB231 and MDA-MB157)) (UniProt O95863). Nature of the assay: co-IP; endogenous Snail1 and Dub3 captured by IP from MDA-MB231 and MDA-MB157 cells; western blot.

Turning to “Flag-tagged full-length (FL) Snail1 (from UniProt O95863 1-264)”, in the assay with GST-Dub3, the binding result is recorded as “binds”.

For HA-Snail1 (from UniProt O95863 1-264), the binding entry with Flag-Dub3 is listed as “binds”.

For “Flag-tagged C-terminal Snail1 (amino acids 153-264) (from UniProt O95863 153-264) (domain or fragment)”, the binding entry with GST-Dub3 is reported as “no binding”.

Turning to “Flag-tagged N-terminal Snail1 (amino acids 1-153) (from UniProt O95863 1-153) (domain or fragment)”, the binding result in the assay with GST-Dub3 was “binds”.

Consider “endogenous Snail1 (MDA-MB231 and MDA-MB157 cells) (from UniProt O95863 1-264)”, for which, in assay [1], the binding result is recorded as “binds”.

B1: Myc-tagged full-length Dub3 (enzyme, UniProt Q6R6M4 1-530)
chain: T1 sequence
With B1, the binding result (in the assay with HA-Snail1; in assay [2]; in assay [3]; with GST-Snail1) was “binds” in each case.

B2: Flag-Dub3 (enzyme, UniProt Q6R6M4 1-530)
chain: T1 sequence
As for B2, the binding entry in the assay with HA-Snail1 is “binds”.

B3: Dub3 co-expressed with Snail1 in HEK293 cells (Supplementary Fig. 1c) (enzyme, UniProt Q6R6M4 1-530)
chain: T1 sequence
In the case of B3, in [4], the binding result is “binds”.

B4: endogenous Dub3 (MDA-MB231 and MDA-MB157 cells) (enzyme, UniProt Q6R6M4 1-530)
chain: T1 sequence
On to B4, for which the binding result in assay [5] is listed as “binds”.
